Sequences with one replicate were seen in a single cluster, so their values are uncertain.

Here are results for 120 sequences from the supplement of paper PMC10126150.
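Note: ATP exposure 15 min at 22 °C before imaging.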

This series has as its system ATP. The series can be described thus: switch fluorescence ratio, 500 uM ATP over buffer (Cy3 cluster intensity, sum of 5 cycles each) (fold (ratio)); higher = stronger signal-on switching upon ATP binding; sequences stand for … in TCGTCGGCAGCGTCAGATGTGTATAAGAGACAGTTTTTTTTTTTTTTTTTTTTTTTTT…TC. The settings on record: aptamer strand: ATP DNA aptamer (quencher-CACCTGGGGGAGTATTGCGGAGGAAGG + anchor), 100 nM annealed; ATP concentration: 500 uM; one replicate. In a few lines:
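Values give the fluorescence ratio for each switch-domain sequence, averaged from per-cluster ratios of summed target-cycle to summed buffer-cycle Cy3 intensity. The Cy3-labelled switching-strand clusters sat on a modified Illumina MiSeq flow-cell, were annealed to 100 nM quencher-labelled ATP aptamer, and were imaged in selection buffer, then after 15 min with 500 uM ATP at 22 °C. Five cycles ran with NaOH stripping and re-annealing between them, and clusters outside 100-1000 RFU were excluded.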
With AGTATTTTGA, the switch fluorescence ratio was 0.979.
Regarding AAGCTGATGG, the switch fluorescence ratio was determined as 1.
As to GTGTAAGGAA, the switch fluorescence ratio came to 0.973.
The same measure for AGAGCGGCAG: 0.984; for CTGTATGAT: 0.979; for CATGCCCGTC: 0.977.
On to TGTTGGTGTT, for which the switch fluorescence ratio stood at 1.01.
The figure for TCGCTCTATT is 0.992; for ACTACGTCGT it is 0.996.
For the sequence GGATGCATGA, the switch fluorescence ratio came out at 1.01.
The same measure for TCGGTTGGCT: 0.964; for GATGTGGCTG: 1.06.
The figure for AATTCAGGTC is 1.
The figure for ACAGACATA is 1.15; for ACTTTAGAAA it is 1.06.
Regarding GGGTACACGG, the switch fluorescence ratio was found to be 0.999.
For AAAACGGACC, the switch fluorescence ratio turned out to be 1.13.
The figure for GAAATGTTGC is 0.953; for GGCTTTCTAG it is 0.978; for GCCCTGCCCT it is 0.991.
The same measure for GTTTTGCATT: 0.997; for CGTGCAGAGT: 0.973.
The figure for AAGGCATGGT is 1.01; for GTGGGCGCAG it is 0.974.
As for GTGACGCCAG, the switch fluorescence ratio was determined as 0.949.
On to GCGCCCATCC, for which the switch fluorescence ratio worked out at 1.13.
In the case of GAGCCAGAAA, the switch fluorescence ratio amounted to 0.962.
The figure for ATGCCCCCTT is 0.986.
The figure for ATTACAGTGC is 1.23; for GAACACTGCG it is 1.03.
The figure for TCAGGCTGCT is 1.02; for AAAGTTTACC it is 1.05.
CGCAGAACTC: the switch fluorescence ratio turned out to be 3.14.
The same measure for ACACTGTTCT: 0.983.
For the sequence TTCTGTGGTA, the switch fluorescence ratio was found to be 0.98.
The same measure for AGATTCTTGA: 0.9.
As to CGAGTACTTA, the switch fluorescence ratio came to 0.989.
For ACATCAGAAA, the switch fluorescence ratio is 0.992.
The figure for CTGCTCAGCT is 1.01; for CGGCGGTGTG it is 1.03.
With TTGTACCTGC, the switch fluorescence ratio was 1.09.
The same measure for CCAGACCGGC: 1.06.
For GGGGCTAGGC, the switch fluorescence ratio came to 1.03.
The figure for TCAAACACCT is 1.35.
In the case of ACTGTTCTGG, the switch fluorescence ratio turned out to be 1.03.
For CCGTTAACTG, the switch fluorescence ratio came out at 1.04.
The figure for TCAAAAATAG is 1.02.
The same measure for CACGGAGGCC: 1.11; for ACGAGGCGAT: 6.4; for TTTGACAGCA: 1.04.
The same measure for GGCTAATAAC: 1.09; for ATCAGGTTGG: 1.01; for GGTGAACTCT: 1.02.
On to AGAGAAGGG, for which the switch fluorescence ratio came to 0.986.
The figure for GTGAGGAGGT is 1; for CGTGGCGCAT it is 1.02; for AGCACCGCAT it is 1.36.
For TACTGCCGCC, the switch fluorescence ratio was 1.32.
The same measure for AATTGCGGGC: 1.01; for TCGGGCGGTC: 1.04; for CAGATCCCAC: 1.01.
The same measure for ACGTTGCTGG: 0.995; for CGTTAGGGCG: 1.05; for GCTCATCGTA: 1.
Regarding GATTTACCCC, the switch fluorescence ratio was 1.16.
The same measure for GTTGTCTTTT: 0.981.
The figure for CGTGTATGGA is 0.997; for AGTCCTTTAT it is 0.993.
For the sequence GTAATGTGTA, the switch fluorescence ratio was determined as 0.983.
Regarding CACAGACCTT, the switch fluorescence ratio was 1.24.
On to TGAGAGCGGT, for which the switch fluorescence ratio turned out to be 1.01.
The figure for AATCTCTTCT is 1.
As to ACCGTTAGGC, the switch fluorescence ratio stood at 1.01.
Regarding ATGGGGAGGA, the switch fluorescence ratio amounted to 0.999.
As for ACTTAGTTTG, the switch fluorescence ratio came out at 1.03.
Consider GTTGGGATCG, for which the switch fluorescence ratio came out at 0.968.
With GAGACGATGC, the switch fluorescence ratio stood at 1.15.
As to TGTTTGAGTC, the switch fluorescence ratio came to 1.02.
Consider GTTATCCTAA, for which the switch fluorescence ratio is 0.93.
The same measure for ACTCCTGATT: 1.67; for CGTTTGCAAC: 1.3; for AAAATTTCGT: 0.968.
The same measure for TCTCTGTGT: 1.05; for TCCATATGAT: 1.
For the sequence CATTTCCCGT, the switch fluorescence ratio came to 1.02.
The figure for GCAGGGCT is 1.03; for ACAGTCCTCG it is 1.09; for CTCTCGGGTA it is 1.03.
With ATATCGTCC, the switch fluorescence ratio was 0.965.
The figure for AACGTTCCGG is 1.02.
ATTAGACCAA: the switch fluorescence ratio is 1.01.
The same measure for ATGGGTCGTG: 1.02; for CGCGTTAGCG: 0.98.
Consider CGGATCACTG, for which the switch fluorescence ratio was 0.98.
Regarding GGTTGTCTTT, the switch fluorescence ratio stood at 0.992.
The figure for CTGATTAATC is 1.01.
For the sequence GTTCAAAAGT, the switch fluorescence ratio stood at 1.02.
Turning to TTTATGGACC, the switch fluorescence ratio came out at 1.01.
The figure for TTCGATTCTC is 0.985; for TTGATCT it is 1.03; for GCTGTGCTA it is 0.985.
The same measure for ATTGGTTTGA: 0.968; for AGATGCAAAT: 1.04.
The figure for CGGCTTAAGC is 1; for GGTCAAGTAG it is 1.03; for CCGGATGTAC it is 2.98.
On to GACGTGTGCT, for which the switch fluorescence ratio stood at 0.938.
The same measure for CACCTGTAGC: 1.15; for TTGCCTAGAA: 0.996; for AGGAGGGCCT: 0.942.
On to TAACTCGAGC, for which the switch fluorescence ratio came to 1.04.
The same measure for ATTCGGCTGG: 0.994; for CCGGTTTTGG: 0.968; for ATTGTAAATG: 1.03.
The figure for TAGGCCACGT is 1; for TCCGGGGGCT it is 1.13; for GTCTAACA it is 0.962.
Regarding GCTGGCAACT, the switch fluorescence ratio is 0.963.
For the sequence AAGATTCCCT, the switch fluorescence ratio was 1.04.
The same measure for GTCAGAGGAG: 0.998.
